Some of the results follow. At the low end of the ranking the order means little.

This assay has as its system T1, GST-NbGlk1(82-244).
T1 sequence: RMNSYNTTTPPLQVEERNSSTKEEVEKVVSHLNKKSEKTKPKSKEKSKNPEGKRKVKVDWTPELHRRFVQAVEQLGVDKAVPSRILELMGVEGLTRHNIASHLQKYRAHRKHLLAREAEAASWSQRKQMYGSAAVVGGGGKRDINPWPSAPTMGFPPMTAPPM
Briefly: protein-binding microarray.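 Also: rank-based score ranging −0.5 to +0.5 with E above 0.45 taken as significant binding.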 Conditions: NbGlk1 is a Golden2-like transcription factor of Nicotiana benthamiana; high values mean tight binding; most listed sequences are background and not binding sites; double strand, one strand shown.
AAGCGCCG displayed a binding signal of -0.199 E-score.

In the case of AACTCATC, the binding signal was -0.179 E-score.

ATGCGGGA returned a binding signal of -0.0269 E-score.

In turn, ACGCGGAA gave a binding signal of 0.0172 E-score.

Turning to AGGCATAG, the binding signal was -0.185 E-score.

In turn, AGAATTAG gave a binding signal of 0.0695 E-score.

With AGTATCCA, the binding signal was found to be 0.265 E-score.

AAAAAGTT had a binding signal of 0.0636 E-score.

AAAGCCCG: the binding signal was -0.294 E-score.

In turn, ACACAGAA registered a binding signal of 0.0891 E-score.

Sequence AACCGCAT had a binding signal of -0.141 E-score.

AGCAACTC: the binding signal is -0.0471 E-score.

The sequence ACAGTAGA gave a binding signal of 0.0173 E-score.

CAACGCGC returned a binding signal of -0.0169 E-score.

In the case of AACATCCA, the binding signal was determined as 0.0573 E-score.

For the sequence ACAGTACA, the binding signal worked out at 0.00516 E-score.

In turn, ACCTCCGC yielded a binding signal of -0.262 E-score.

With ATAGACGC, the binding signal is -0.133 E-score.

On to AAACAGGT, for which the binding signal is -0.0999 E-score.

Regarding AATTATAG, the binding signal came out at 0.124 E-score.

Sequence ACCTAGCC had a binding signal of -0.106 E-score.

ACACCCCG showed a binding signal of -0.166 E-score.

Sequence AGCGCTTG gave a binding signal of -0.131 E-score.

Regarding AGGTACTA, the binding signal was -0.116 E-score.

The sequence ATTGGATG came in with a binding signal of 0.0536 E-score.

As for AGGTAATC, the binding signal amounted to 0.416 E-score.

The sequence ATGCGAAG displayed a binding signal of -0.0716 E-score.

With AAGCAGTC, the binding signal was -0.212 E-score.

In turn, AATCCTAA displayed a binding signal of 0.395 E-score.

In turn, AGCGAAAA displayed a binding signal of 0.0195 E-score.

As for ACCTCAAA, the binding signal was -0.0253 E-score.

Regarding AGTTGAGC, the binding signal was -0.138 E-score.

AGGCTTCC gave a binding signal of -0.353 E-score.

Take ATTAAGGA: the binding signal amounted to 0.0905 E-score.

ATTGGTCA registered a binding signal of 0.0284 E-score.

The sequence AAGTATAA yielded a binding signal of 0.165 E-score.

With ATGGGTGC, the binding signal is -0.0894 E-score.

Regarding ATGTGTAG, the binding signal came to 0.045 E-score.

Take AAGGTACC: the binding signal was -0.115 E-score.

Sequence AACTCTCC yielded a binding signal of -0.0732 E-score.

On to AGTACTAG, for which the binding signal is -0.0845 E-score.

Regarding AAGGCCCG, the binding signal was -0.243 E-score.

In turn, AGGTTTTC showed a binding signal of -0.102 E-score.

The sequence ATCTGATG gave a binding signal of 0.241 E-score.

Take ACGGTTAA: the binding signal was -0.0147 E-score.

ATTTAGAG displayed a binding signal of 0.0647 E-score.

AAAGTAGC came in with a binding signal of -0.124 E-score.

ATTCAGCA: the binding signal amounted to 0.107 E-score.

In turn, ATCATCGG gave a binding signal of 0.138 E-score.

Regarding ACGGCTTC, the binding signal is -0.336 E-score.

AGGGGCCC came in with a binding signal of -0.382 E-score.

As for AGATGTTA, the binding signal was 0.119 E-score.

The sequence AAAAGCCG returned a binding signal of -0.133 E-score.

Sequence ACATAGTG registered a binding signal of -0.0763 E-score.

With AGACAGAG, the binding signal is -0.0869 E-score.

On to AGGGAACT, for which the binding signal was -0.173 E-score.

AGATTGGG: the binding signal is 0.186 E-score.

Turning to AGAGCACT, the binding signal was -0.125 E-score.

In turn, AGGACAAG came in with a binding signal of -0.0944 E-score.

For AACGCTAT, the binding signal is -0.0192 E-score.

AGTAGGTG: the binding signal was -0.175 E-score.

The sequence AAATCTCG had a binding signal of 0.463 E-score.

AGTCGTCC showed a binding signal of -0.266 E-score.

For AGACCAAC, the binding signal was -0.126 E-score.

AGAACTCG: the binding signal was -0.143 E-score.

Consider ACTTAAAC, for which the binding signal is 0.0645 E-score.

Sequence AGCCCTAC displayed a binding signal of -0.193 E-score.

Regarding ACCTCCGT, the binding signal was -0.255 E-score.

ACGAGAGC gave a binding signal of -0.0209 E-score.

With AGCGCCCC, the binding signal was -0.253 E-score.

Sequence AGTTTTAA returned a binding signal of -0.142 E-score.

Sequence AGTAGCCC had a binding signal of -0.232 E-score.

ACAATCCA displayed a binding signal of 0.333 E-score.

AACAGATT came in with a binding signal of 0.426 E-score.

On to AACTTCCT, for which the binding signal was -0.11 E-score.

The sequence AATCTCTC had a binding signal of 0.368 E-score.

In turn, ATTTAAGG registered a binding signal of -0.000788 E-score.

For ACAGTATC, the binding signal was 0.304 E-score.

On to ACCATTAC, for which the binding signal was determined as 0.0188 E-score.

In turn, ACCACAAA gave a binding signal of -0.0279 E-score.

Consider AACGCTCC, for which the binding signal was -0.052 E-score.

On to AACTACGG, for which the binding signal is -0.083 E-score.

AGATCAAA yielded a binding signal of 0.133 E-score.

Sequence ACATGAAA yielded a binding signal of 0.129 E-score.

On to CAAGACTA, for which the binding signal is -0.0256 E-score.

Sequence AAGGCCAT had a binding signal of -0.0684 E-score.

On to ATACTGGG, for which the binding signal is -0.0274 E-score.

Consider ATGGCCAT, for which the binding signal is -0.128 E-score.

Regarding AAGGCGAC, the binding signal is -0.283 E-score.

As to ACTTGGTC, the binding signal was -0.155 E-score.

The sequence ACGCAAAT showed a binding signal of 0.176 E-score.

AATCAAGG yielded a binding signal of 0.258 E-score.

As to ACACCACC, the binding signal is -0.0727 E-score.

As to AGATAACG, the binding signal came to 0.119 E-score.

In the case of AGAGGGCT, the binding signal was -0.282 E-score.

AAGAATGT: the binding signal stood at 0.00487 E-score.

With AAAGCACT, the binding signal is -0.163 E-score.

Regarding AGCACTTC, the binding signal was -0.114 E-score.

AAAAATCC showed a binding signal of 0.437 E-score.

On to ATGCAATG, for which the binding signal is -0.0993 E-score.

Regarding ACGTTGTC, the binding signal is -0.129 E-score.

The sequence ATCAGACA showed a binding signal of 0.136 E-score.

AGGCCCCA showed a binding signal of -0.334 E-score.

Take ATGTCGTG: the binding signal was -0.0169 E-score.

Consider CAAAGGGA, for which the binding signal is -0.1 E-score.

On to AAGCGGCG, for which the binding signal was -0.129 E-score.

As to ACAAGATG, the binding signal was -0.0534 E-score.

With AAGAAAGT, the binding signal was found to be 0.0744 E-score.

Consider ACACGCCA, for which the binding signal was -0.211 E-score.

For AGAATTAC, the binding signal was 0.23 E-score.

In turn, AGGACAGC returned a binding signal of -0.14 E-score.

In turn, ATCAGACG returned a binding signal of -0.00462 E-score.

On to ACGCCCCA, for which the binding signal was -0.175 E-score.

AGAAAAGA displayed a binding signal of 0.164 E-score.

On to CAGCATCC, for which the binding signal is -0.0849 E-score.

For ACATGCAA, the binding signal worked out at 0.141 E-score.

AACAACAC gave a binding signal of -0.146 E-score.

ACGTGAAC gave a binding signal of 0.0124 E-score.

As for AGGAGACC, the binding signal was -0.3 E-score.

CACCATCG came in with a binding signal of -0.144 E-score.

Consider ATACGAAA, for which the binding signal stood at 0.276 E-score.

As for AACCCCGA, the binding signal is -0.0991 E-score.

In turn, ACCTATCA came in with a binding signal of -0.0396 E-score.

ACTAAAAC returned a binding signal of 0.0428 E-score.

As to ACTATTCC, the binding signal is 0.0219 E-score.

In turn, ATATAATG came in with a binding signal of 0.147 E-score.

Consider ACCCTTAC, for which the binding signal was -0.153 E-score.

Sequence ACAAGGCA yielded a binding signal of -0.15 E-score.

As to AACCACGT, the binding signal was -0.0832 E-score.

AAATCGAA registered a binding signal of 0.329 E-score.

The sequence AGGTTGCC returned a binding signal of -0.271 E-score.

Consider ACCCATAA, for which the binding signal worked out at 0.104 E-score.

In the case of AGGTCCTG, the binding signal is -0.238 E-score.

Turning to CAAATGCG, the binding signal is -0.00184 E-score.

Turning to ACGCAGCA, the binding signal was -0.125 E-score.

Regarding ACCATTCG, the binding signal was -0.131 E-score.

Turning to AAACGAGT, the binding signal was -0.0518 E-score.

As for AATAAGGC, the binding signal stood at 0.126 E-score.

Take ACTCCTTG: the binding signal was -0.17 E-score.

On to ACCGGAGG, for which the binding signal was -0.22 E-score.

For ACAGATGG, the binding signal was -0.121 E-score.

In the case of CAAGAAAC, the binding signal was -0.0207 E-score.

For the sequence AGCAAAAG, the binding signal was -0.0263 E-score.

The sequence AGCTTATA registered a binding signal of 0.0323 E-score.

Turning to AACCCAGT, the binding signal was -0.165 E-score.

The sequence AATGTTGA yielded a binding signal of 0.0497 E-score.

On to AATGGCTG, for which the binding signal is -0.229 E-score.

The sequence AAACGCGA had a binding signal of 0.106 E-score.

With CACCCCCG, the binding signal is -0.143 E-score.

Sequence CACCAAGA registered a binding signal of 0.0698 E-score.

As to AACCCTGG, the binding signal was -0.258 E-score.

On to AGCTCCAC, for which the binding signal was -0.228 E-score.

AAACTCCG yielded a binding signal of -0.155 E-score.

ATACACTC came in with a binding signal of 0.0183 E-score.

Turning to AATGCTTA, the binding signal was -0.0563 E-score.

In turn, ATATGGGG gave a binding signal of 0.0536 E-score.

Take ACCACTTA: the binding signal was -0.0325 E-score.

In the case of CACTACGC, the binding signal was -0.166 E-score.

For the sequence AGACGCGC, the binding signal was -0.155 E-score.

CAGCCAAG had a binding signal of 0.00384 E-score.

ATACCTGC gave a binding signal of 0.0322 E-score.

Regarding ACCAGTAA, the binding signal is -0.0209 E-score.

Sequence CAACCGGC displayed a binding signal of -0.174 E-score.

In the case of AGCTTCTC, the binding signal is -0.145 E-score.

AAGAGACG came in with a binding signal of -0.246 E-score.

With AGCATTCC, the binding signal was -0.186 E-score.

ATCGCCGA displayed a binding signal of 0.202 E-score.

Sequence ATTAAAGG registered a binding signal of -0.0563 E-score.

Sequence AGGGTTCG returned a binding signal of -0.312 E-score.

Regarding ACGAGGTG, the binding signal was -0.1 E-score.

AAGGGCGC returned a binding signal of -0.164 E-score.

With ACTACGTC, the binding signal is -0.0994 E-score.
